The RNAGym collection of RNA variant scans (doi:10.7554/elife.90254)
Read counts are not given, so values of variants with three or more changes are uncertain.

B1: LINE1-full (parent)
chain: UACGUAGGUGGUUUUCCCCUGAUAGUGCUAAGGGGGCCUGGAAGUUUGGACUGGGCAGAGCUCAACACAGCGUGGCAAAGUGGCUGUGGCUAGACUGCCUCUCUGGAUUCCUCGUCACUCAGCAGGGCAUCUCUGAGAGAAAUGCC

Variants of: B1
Assay: self-cleavage, relative activity (ratio to wild type); higher = more cleavage; in vitro, sequencing; the parent is a self-cleaving ribozyme
Work on U46C A57G A65U U119C yielded a self-cleavage of 0.34.
Variant U47A A57U A65G U119A A136G has a self-cleavage of 0.03.
U39C U112A A138G showed a self-cleavage of 0.76.
A79G A94G U96C showed a self-cleavage of 0.
Variant U45C A79U U81A has a self-cleavage of 2.69.
U15C U26G C90U showed a self-cleavage of 0.11.
Work on U12G U45C A121G yielded a self-cleavage of 0.85.
Variant C3U A78U A129G has a self-cleavage of 1.43.
Variant U9C A79G U100C has a self-cleavage of 1.79.
In the case of U13C U45A U62C U112C, the self-cleavage is reported as 0.
A2G U9C U20A U115A U119A U130C showed a self-cleavage of 1.02.
G126A A138G A140G showed a self-cleavage of 0.44.
In the case of U29C A50G U132C A142G, the self-cleavage is reported as 0.
Work on U15C A59G U115A yielded a self-cleavage of 0.13.
Work on G53A A67G U87A U108C A138U yielded a self-cleavage of 0.08.
In the case of U104C G105U U115C U119C, the self-cleavage is reported as 2.42.
In the case of A30G U109C A117C U119A, the self-cleavage is reported as 2.55.
Work on U13A A77G U100C yielded a self-cleavage of 1.77.
A22G U46A A94G gave a self-cleavage of 0.37.
With A31G A42U A121G the self-cleavage was 1.37.
U15G A67G A129G U134C showed a self-cleavage of 0.
In the case of A22G C113A A121G, the self-cleavage is reported as 1.38.
With A64G G70A A136G the self-cleavage was 0.11.
In the case of A22G U47A U104C, the self-cleavage is reported as 0.72.
A24U A124G A129G showed a self-cleavage of 0.95.
For U104A U109C U134A A142G, the self-cleavage was 1.91.
Variant U12C U85C G126A has a self-cleavage of 1.31.
For U14C A79G A129U, the self-cleavage was 0.93.
In the case of U26C C37U A59G U100C, the self-cleavage is reported as 0.15.
G21A U45C C56U gave a self-cleavage of 0.1.
With U20A C51U A79G U102C U132C the self-cleavage was 0.77.
In the case of A30G U102C A107U, the self-cleavage is reported as 1.29.
Work on G53A A117G C123G A124G yielded a self-cleavage of 1.23.
For A43G A64G U102C C131U, the self-cleavage was 0.38.
In the case of U62C C71U A117G, the self-cleavage is reported as 0.05.
G7U U14C C17A G144A gave a self-cleavage of 1.45.
For U26C U39G A65G, the self-cleavage was 0.
For A6G G44A U46C, the self-cleavage was 0.6.
Variant G33U U46C A78G has a self-cleavage of 1.79.
For U13C U20C A59G U119C, the self-cleavage was 0.
With U9C U100C C123U A138G the self-cleavage was 1.41.
For U14C C113U A142U, the self-cleavage was 1.04.
Work on U20G A31C A64G yielded a self-cleavage of 0.77.
G44A U100C U132C showed a self-cleavage of 2.05.
Variant A30U A94U U102C has a self-cleavage of 0.65.
For U15C A31U U47C A78U U85C, the self-cleavage was 0.63.
G33U U91A A94G U100G showed a self-cleavage of 0.11.
G32A A92G A129U A138G showed a self-cleavage of 0.05.
Variant A30G A50G G53A A94G A129U A138G has a self-cleavage of 0.29.
Variant U13C U108A U109A has a self-cleavage of 0.
For G34U A79G U100A, the self-cleavage was 0.5.
Variant C3U A67U G89A A129U has a self-cleavage of 0.08.
Variant U14C U15C A30G A69G has a self-cleavage of 0.
U12C A43G U62C A78G A117U gave a self-cleavage of 0.
For U20G U108C U109A U119A G125U, the self-cleavage was 2.25.
For G49A U52C A129G, the self-cleavage was 0.66.
Variant U12A U26C U73A has a self-cleavage of 0.15.
U20C A94G A107G showed a self-cleavage of 0.
For U73A U91G U104A A124G U134C, the self-cleavage was 0.
U12C U73C A136G showed a self-cleavage of 0.51.
Work on U13C U15A U39A yielded a self-cleavage of 0.53.
For U39A C110U U143A, the self-cleavage was 1.14.
C3U A42G A124C showed a self-cleavage of 0.69.
C19U A22G A138G C146A showed a self-cleavage of 0.37.
Work on A31C A78G A121U U134C yielded a self-cleavage of 0.52.
For G53A U109A A121U A129C, the self-cleavage was 1.62.
U47C A79G G125A showed a self-cleavage of 1.17.
A31U A78G U108C showed a self-cleavage of 2.63.
In the case of U13C G35C A59U U108C A140G, the self-cleavage is reported as 0.93.
Variant U12C U62A U85C G89A U112C A142G has a self-cleavage of 0.05.
With C101U U112C A142G the self-cleavage was 2.04.
Variant U39A C51U A67G A129U has a self-cleavage of 0.28.
A117C A121U U132C showed a self-cleavage of 2.21.
C37A A78G A92G U100A A124U A136G U143A showed a self-cleavage of 0.03.
Variant U15A U102C A124U has a self-cleavage of 0.71.
U26C A79G U96C C133U showed a self-cleavage of 0.15.
With U20C A24U A64U A138C the self-cleavage was 0.
A59G A67G A69U showed a self-cleavage of 0.
Work on U1A U5C A42G G137A yielded a self-cleavage of 1.14.
C51A U62C A64U C95U showed a self-cleavage of 0.
C63U C76A A117G showed a self-cleavage of 0.75.
Work on U29A A67G A121U C146U yielded a self-cleavage of 0.79.
With U26C G74A A77G U109C the self-cleavage was 1.21.
With U100A U130C A138G the self-cleavage was 1.08.
U12A U62A U81A A138U showed a self-cleavage of 0.07.
U104A U115A A136G showed a self-cleavage of 1.85.
For A67G G82A A142G, the self-cleavage was 0.74.
For G4A U109C A121G A124G, the self-cleavage was 2.04.
Variant A2G U45C A129G has a self-cleavage of 0.73.
For U1C A43G U91A U100C U102C U134A, the self-cleavage was 0.29.
A24G A77G A136G gave a self-cleavage of 1.84.
A78U U85C U109C showed a self-cleavage of 0.1.
Work on U1A G54A U115C yielded a self-cleavage of 1.6.
In the case of U14A A22G A107G, the self-cleavage is reported as 0.98.
In the case of U13C U47C U52G, the self-cleavage is reported as 1.06.
Work on G21A U23C G40U U45C A69G U85G yielded a self-cleavage of 0.
Work on G4A G93A U143C yielded a self-cleavage of 0.05.
Variant U1C U62C A64U U115C A142G has a self-cleavage of 0.24.
Work on U46C A57U G126A yielded a self-cleavage of 0.23.
G27A G93A C128U gave a self-cleavage of 0.02.
Work on G7C A107G C111U G114A yielded a self-cleavage of 2.54.
Work on A22G U115C A129G yielded a self-cleavage of 0.88.
With A24G C66U U100C U115C the self-cleavage was 0.19.
In the case of U12C U52C U62C, the self-cleavage is reported as 0.52.
With U112A U132A A136U the self-cleavage was 1.68.
A30U A43G U112A A138U gave a self-cleavage of 1.4.
U52A U81A U87C A138G showed a self-cleavage of 0.22.
In the case of A59G U132C U134A, the self-cleavage is reported as 0.1.
A79G U104A U115A gave a self-cleavage of 1.53.
In the case of A50G U96C A129G A142G, the self-cleavage is reported as 0.
Work on C71U U87C U96C G122C yielded a self-cleavage of 0.
For U39A A67C U102C A121U, the self-cleavage was 0.
For C19U U26A U39C U104C, the self-cleavage was 1.03.
Variant G34U U91C A142U has a self-cleavage of 0.61.
For C38U A107G U115A A142G, the self-cleavage was 1.07.
For G44A A117U A138G, the self-cleavage was 1.82.
A31G A43G U112C gave a self-cleavage of 1.19.
For U20A A31C A43G U52A, the self-cleavage was 2.3.
U9C U23C G75A A77G U100C A140G gave a self-cleavage of 1.26.
Work on U39A G48A A69U U81A U108C yielded a self-cleavage of 0.05.
For U45C U108C A140G, the self-cleavage was 2.04.
For U12G G80U U87A, the self-cleavage was 0.
U14A U62A A65C A79U showed a self-cleavage of 0.
U9C U115A A129U A140G gave a self-cleavage of 1.68.
With U47C G74A A79G U109C the self-cleavage was 1.15.
U13C U39A U46A G82U showed a self-cleavage of 0.49.
A59G C71U U100C showed a self-cleavage of 0.11.
U14C C38A C76U A121G A136C gave a self-cleavage of 2.14.
Work on U5C A50G A69U A141G yielded a self-cleavage of 0.25.
With A64U A136G A141G the self-cleavage was 0.45.
For U13C A129C A136G, the self-cleavage was 2.04.
For U5C A6U U100C G126A, the self-cleavage was 1.1.
Variant U5C C28U U109A U115C has a self-cleavage of 0.79.
A30G U62A G106A gave a self-cleavage of 0.07.
With U9C U14C C66U the self-cleavage was 0.15.
With A77G A78G C103A the self-cleavage was 2.9.
A59G A69G U130C showed a self-cleavage of 0.
For A42G U45C U143C, the self-cleavage was 1.73.
Work on U39A A79U U96A U109C yielded a self-cleavage of 0.19.
C18U A24G G25A C66A U85A U102C U112C showed a self-cleavage of 0.
Variant A64G G86A U115C has a self-cleavage of 0.11.
U62A A64C U87C C133U gave a self-cleavage of 0.03.
In the case of C3U U47A A69G G105A A138G, the self-cleavage is reported as 0.72.
Work on G41A A79G A92G U96A yielded a self-cleavage of 0.12.
Work on A59U A77G U91C A136G yielded a self-cleavage of 0.84.
Work on U62C A65U U109C yielded a self-cleavage of 0.09.
U52A A69G A121C G122U showed a self-cleavage of 0.74.
Variant A2G G33A A43G A67G has a self-cleavage of 0.21.
A42U U62C A65G G114U showed a self-cleavage of 0.02.
For C61U A77G U85C U87A U104C, the self-cleavage was 0.
In the case of G27A A43G G75A U130A, the self-cleavage is reported as 0.55.
Work on U45C U115C A129G yielded a self-cleavage of 2.12.
U12A U14C U20C G48A gave a self-cleavage of 1.09.
With A6G U26C A65U U134C the self-cleavage was 0.36.
U9A U39C U46A A65U U104G U112C showed a self-cleavage of 0.12.
Work on A2G U14C A59G G74A yielded a self-cleavage of 0.18.
For U9C U81A G88A, the self-cleavage was 0.09.
In the case of G11U U112C C133U, the self-cleavage is reported as 0.87.
U45C A59G U102C showed a self-cleavage of 0.
With U46A U109C A129G the self-cleavage was 1.18.
Variant U14C A117G U134C has a self-cleavage of 1.56.
With U15C U85A U102C A124U C133U A136G the self-cleavage was 0.24.
Variant A31G G35A U87A A129U has a self-cleavage of 0.08.
Work on U5C U39A U73A yielded a self-cleavage of 1.12.
Work on A30G G35A G106U yielded a self-cleavage of 1.42.
Work on U14C U85A U119C yielded a self-cleavage of 0.07.
Work on G11U G34A A67G U96C yielded a self-cleavage of 0.02.
